# PMC4336329 (PLoS ONE, 2015)
# In all, about 310,000 compounds went through this assay and about 2,200 (0.71%) showed an effect of 50% or more. Effects have a minus sign here. This is one part of the list.
# Biological target: human ether-à-go-go-related gene (hERG) potassium channel (human, UniProt Q12809)
# Assay: primary screen, population patch clamp on CHO cells stably expressing hERG
# Sequence of human ether-à-go-go-related gene (hERG) potassium channel (Q12809 whole entry, looked up): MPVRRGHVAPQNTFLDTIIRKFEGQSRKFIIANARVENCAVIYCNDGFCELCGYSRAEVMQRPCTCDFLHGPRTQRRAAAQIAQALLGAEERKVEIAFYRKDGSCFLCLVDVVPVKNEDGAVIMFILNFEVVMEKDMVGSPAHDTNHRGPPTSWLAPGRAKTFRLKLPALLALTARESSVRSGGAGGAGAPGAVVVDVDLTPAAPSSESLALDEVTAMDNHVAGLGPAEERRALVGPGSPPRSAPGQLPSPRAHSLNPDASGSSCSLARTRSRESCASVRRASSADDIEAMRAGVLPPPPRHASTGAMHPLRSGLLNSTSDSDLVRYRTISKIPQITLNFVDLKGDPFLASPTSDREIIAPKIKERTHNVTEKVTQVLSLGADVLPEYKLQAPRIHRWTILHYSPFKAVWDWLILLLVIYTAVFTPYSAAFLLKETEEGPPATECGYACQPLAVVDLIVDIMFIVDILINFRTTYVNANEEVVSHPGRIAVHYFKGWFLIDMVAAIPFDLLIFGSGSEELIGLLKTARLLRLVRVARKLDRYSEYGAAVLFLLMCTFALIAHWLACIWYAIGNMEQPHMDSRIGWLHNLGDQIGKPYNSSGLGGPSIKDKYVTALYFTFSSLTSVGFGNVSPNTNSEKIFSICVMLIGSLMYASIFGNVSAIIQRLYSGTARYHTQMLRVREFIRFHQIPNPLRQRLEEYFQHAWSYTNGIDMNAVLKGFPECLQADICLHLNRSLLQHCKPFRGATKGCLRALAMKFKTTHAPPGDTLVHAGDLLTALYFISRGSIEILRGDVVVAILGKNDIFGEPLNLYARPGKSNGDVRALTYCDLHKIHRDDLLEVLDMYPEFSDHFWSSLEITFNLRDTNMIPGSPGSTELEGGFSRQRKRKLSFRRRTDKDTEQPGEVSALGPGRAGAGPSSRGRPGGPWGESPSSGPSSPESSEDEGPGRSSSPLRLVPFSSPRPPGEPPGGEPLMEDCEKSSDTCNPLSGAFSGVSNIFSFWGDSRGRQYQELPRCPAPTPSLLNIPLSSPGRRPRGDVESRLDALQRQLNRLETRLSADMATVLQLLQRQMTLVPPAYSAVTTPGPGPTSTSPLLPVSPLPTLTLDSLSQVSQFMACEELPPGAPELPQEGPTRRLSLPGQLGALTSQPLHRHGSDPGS
row,SMILES,"hERG current change (%, negative = inhibition) at 1uM"
1,O=C(NCCO)c1cc2ccccc2cc1O,3.96%
2,CC1CCCCN1C(=O)Cn1c(=O)oc2ccccc21 (stereo not drawn),-10.5%
3,O=C(Nc1ccccc1C(=O)NCCc1ccccc1)c1cnccn1,8.26%
4,Cc1nc(SCC(=O)Nc2ccccc2Cl)oc1C,8.91%
5,CC1(C)Cc2nc3sc(C(=O)O)c(N)c3cc2CS1,12.1%
6,COc1ccc(NC(=O)CN(C)C(=O)c2ccc3[nH]c4c(c3c2)CC(C)CC4)cc1 (stereo not drawn),15.9%
7,CN(CC(=O)Nc1ccc(Cl)c(C(F)(F)F)c1)C(=O)c1cc(=O)[nH]c2ccccc12,14.9%
8,N=c1c(C(=O)NCc2ccccc2)cc2c(=O)n3ccccc3nc2n1Cc1ccco1,-75.5%
9,Cc1ccc(CS(=O)(=O)Cc2ccc(C(=O)NCc3cccs3)o2)cc1,2.11%
10,COc1ccc(OC(=O)c2cnc3n(c2=O)CCS3)cc1,9.86%
11,CCOc1ccc(OCC)c(NC(=O)CN(C)S(=O)(=O)c2cccc3nsnc23)c1,2.37%
12,COc1ccc(CC(=O)Nc2cccc(C(=O)Nc3cccc(C)c3)c2)cc1,-0.719%
13,CSCCC(NS(=O)(=O)c1cccs1)C(=O)NCc1ccc(C)cc1 (stereo not drawn),5.07%
14,CCCCCn1nc(C)c(/C=N/NC(=O)c2ccoc2C)c1C,-3.38%
15,Cc1c(CN2CCN(CC(C)C)C(CCO)C2)[nH]c2ccc(Cl)cc12 (stereo not drawn),18.8%
16,Brc1ccccc1C1Nc2cccc3cccc(c23)N1,1.91%
17,COc1ccc(C(CC(=O)NCCCN2CCOCC2)NS(=O)(=O)c2ccc(C)cc2)cc1 (stereo not drawn),-1.31%
18,COc1ccc(C2C=C(c3cccs3)Nc3nc(CCCO)nn32)cc1 (stereo not drawn),-10.3%
19,Cc1c(C(=O)c2ccc(Cl)c([N+](=O)[O-])c2)c2ccccn2c1CCC#N,-0.45%
20,CSCCC(NC(=O)c1ccco1)C(=O)NC1CCCCCC1 (stereo not drawn),7.94%
21,CCOC(=O)c1ccc(S(=O)(=O)N2CCN(C(=O)CSc3nc4ccccc4o3)CC2)cc1,3.06%
22,COc1ccc(-c2cc(=[NH+]c3ccccc3)c3cc(C)ccc3o2)cc1.[O-][Cl+3]([O-])([O-])[O-],14%

row,SMILES,"hERG current change (%, negative = inhibition) at 1uM"
1,CCNS(=O)(=O)c1ccc(CCC(=O)N2CCCC2)cc1,1.09%
2,COc1ccc(CNC(=O)C(c2ccco2)N(Cc2cccs2)C(=O)Cc2cccs2)cc1 (stereo not drawn),11.5%
3,CN1CCN(C(=O)c2cc3c(n(-c4ccccc4)c2=O)CC(C)(C)CC3=O)CC1,13.6%
4,Cc1cc(C)nc(NNC2=CC(=[N+]3CCCC3)CCC2)n1.[I-],-4.51%
5,Cc1ccccc1Nc1nc(-c2cccnc2)cs1,19.3%
6,COc1ccc(N(CC(=O)NC2CCCC2)C(=O)Cn2nnc(-c3ccc(F)cc3)n2)cc1,8.35%
7,CC(=O)Oc1ccccc1C1=NN(C(C)=O)C(c2ccccc2)C1 (stereo not drawn),0.781%
8,COc1ccc(/C=C(\C#N)C(=O)Nc2cccnc2)cc1,5.31%
9,O=c1[nH]nc(Cc2ccc(Cl)cc2)c2ccccc12,14%
10,CSc1ccc(CN(C)C(=O)c2cc(Cl)c3c(c2)OCCO3)cc1,9%
11,O=C(CCNC(=O)c1ccc([N+](=O)[O-])cc1)Nc1ccc(F)cc1,-5.13%
12,COc1ccc(-c2nc(=S)c3c(n2CCN2CCOCC2)CC(C)(C)OC3)cc1,9.18%
13,O=C(N/N=C/c1ccncc1)NC12CC3CC(CC(C3)C1)C2,-1.81%
14,NC(=O)c1cc2ccccc2o/c1=N\NC(=O)c1ccc(F)cc1,0.506%
15,CSC1=NP(=S)(SC)N2CCCC2=C1C#N (stereo not drawn),6.13%
16,Cc1ccccc1C(=O)O/N=C(\N)Cc1cccs1,13.7%
17,COc1ccc(CN2CCNC(=O)C2CC(=O)NCCCn2cccn2)c(OC)c1 (stereo not drawn),7.05%
18,CCCCOc1ccc(/C=C/C(=O)NCCc2nc3ccccc3[nH]2)cc1,-8.64%
19,O=C(N/N=C/CCc1ccccc1)c1ccccc1,3.56%
20,CCC(Sc1nccn1C)C(=O)Nc1nnc(C)s1 (stereo not drawn),4.96%
21,O=C(NC(Cc1ccccc1)c1nc2ccccc2[nH]1)c1cccc([N+](=O)[O-])c1 (stereo not drawn),16.6%
22,Cc1ccc(CN2[C@@H](CC(C)C)COCCS2(=O)=O)cc1,12.4%

row,SMILES,"hERG current change (%, negative = inhibition) at 1uM"
1,Cc1ccc(NC(=O)c2cccc(NC3=NC4CS(=O)(=O)CC4S3)c2)cc1C (stereo not drawn),7.38%
2,Cc1ccc2cc(/C=N/NC(=O)CN3CCOCC3)c(Cl)nc2c1,0.498%
3,CCCCn1nnc(NC(=O)c2sc3cc(Cl)ccc3c2Cl)n1,17.6%
4,CCc1ccc(NC2=NC(C(=O)c3ccccc3)CC(=O)N2)cc1 (stereo not drawn),3.9%
5,COc1ccc(CN(C)S(=O)(=O)c2nnc(NC(=O)c3ccc(C)cc3)s2)cc1OC,14.5%
6,COc1ccc(C(=O)N2CCCN(C)CC2)cc1S(=O)(=O)N1CCCc2ccccc21,1.09%
7,CN(C)S(=O)(=O)c1ccc(NC(=O)CN2CCCCCC2)cc1,42.9%
8,CCOC(=O)N1CCN(C(=O)CSc2nc(=O)n3ccccc3n2)CC1,14.6%
9,Nc1cccc(-c2cn3cc(C(F)(F)F)cc(Cl)c3n2)c1,2.23%
10,CCC1CCCCN1CCCNC(=O)C1CCCN(c2nn3c(=O)cc(C)nc3s2)C1 (stereo not drawn),26.6%
11,COCCN(C(=O)CSc1nnc(-c2ccc(C(C)(C)C)cc2)n1N)c1c(N)n(CC(C)C)c(=O)[nH]c1=O,9.94%
12,CN(C)c1ccc(/C=C2\CCC/C(=C\c3ccccc3)C2=O)cc1,-0.22%
13,O=C(NCc1ccncc1)C(=O)NCC(c1ccco1)N1CCN(c2ccccc2F)CC1 (stereo not drawn),9.04%
14,O=C(c1cccc(S(=O)(=O)N2CCCC2)c1)N1CCN(c2ccccc2)CC1,5.25%
15,N#C/C(=C\c1ccccc1C(F)(F)F)C(=O)Nc1ccccc1F,7.57%
16,CCOC(=O)C1(CCOc2ccccc2)CCN(Cc2ccc(-n3cccn3)cc2)CC1,-37.8%
17,COC(=O)c1c(-c2ccc(SC)cc2)sc2ccccc12,15.9%
18,Cc1ccc(N2CC(C(=O)Nc3cccc(C(=O)NC4CC4)c3)CC2=O)cc1 (stereo not drawn),-3.79%
19,O=C(Nc1nnc(S(=O)(=O)Nc2ccccc2)s1)C1CCCCC1,9.71%
20,CCN1C(=O)C(=O)N(CC(=O)N2CCC(C)Sc3ccccc32)C1=O (stereo not drawn),8.43%
21,COc1ccc(CNC(=O)C2CCCN2S(=O)(=O)c2ccccc2)cc1 (stereo not drawn),27.6%
22,Cc1ccc(NC(=O)Cc2nnc(SCC(=O)Nc3ccc(N4CCOCC4)cc3)n2C)cc1,8.37%

row,SMILES,"hERG current change (%, negative = inhibition) at 1uM"
1,CC(C)CC1NC(=O)N(Cc2cc(=O)n3ccsc3n2)C1=O (stereo not drawn),-11.4%
2,CC(C)(C)c1ccc(C(=O)c2c[nH]c(C(=O)NCc3ccco3)c2)cc1,6.46%
3,Cc1ccc(N2CCN(c3ccc(NCc4nc5ccccc5n4C)cc3)CC2)cc1,14.8%
4,CCCCCN1CC(=O)N2C(C)c3[nH]c4ccccc4c3C[C@H]2C1=O (stereo partly drawn),15%
5,Cc1cc(NC(=O)COc2ncnc3sc(C)c(C)c23)no1,1.7%
6,COc1cccc(/C=C2\SC(=S)N(C(C(=O)O)c3ccccc3)C2=O)c1OC (stereo not drawn),12%
7,Fc1ccc(-n2nnnc2-c2cnc(-c3cccs3)nc2C(F)(F)F)cc1,13.6%
8,OCCC1CN(C/C(Cl)=C/c2ccccc2)CCN1C1CCCC1 (stereo not drawn),-43.4%
9,O=C(c1cccs1)N1CCCC(c2nc3c(nnn3Cc3c(Cl)cccc3Cl)c(=O)[nH]2)C1 (stereo not drawn),-1.71%
10,COc1cccc(CN2C(=O)NC3(CCCCCC3)C2=O)c1,11.8%
11,Cc1ccc(NC(=O)N2CCC(C(=O)NCC(C)C)CC2)cc1,9.17%
12,CCn1c(=O)cc(SCC(=O)N2CCN(C3CCCCC3)CC2)c2ccccc21,-0.841%
13,CCN(CC)S(=O)(=O)c1cccc(C(=O)Nc2cc(C)nn2-c2ccccc2)c1,-2.81%
14,COc1ccc(NC(=O)Cn2nc(Cc3cccnc3)c3ccccc3c2=O)c(OC)c1,-1%
15,Cc1ccc(-c2nc(CS(=O)(=O)CC(=O)NCc3cccc(F)c3)c(C)o2)cc1,16.8%
16,Cc1ccc(-c2csc(N3CCN(c4cc5c(cc4Cl)nc(C(C)N)n5CCCO)CC3)n2)cc1 (stereo not drawn),12.2%
17,C=C1CCN([C@@H](Cc2ccccc2)C(=O)NCCC(C)C)S(=O)(=O)c2ccccc21,19.5%
18,O=S(=O)(Nc1cccnc1)c1ccc(Cl)c(C(F)(F)F)c1,10.2%
19,O=C(CSc1ccc(Cl)cc1)Nc1ccccc1Oc1ccccc1,12.4%
20,CCCC(=O)N1CCN(c2nc3ccc(Cl)cc3s2)CC1,-26.4%
21,Cc1cc(C(C#N)c2ccccc2)n2ncnc2n1 (stereo not drawn),9.73%
